In the assay the test system is nitric oxide production by macrophages (murine macrophage cell line RAW 264.7). The assay is described as follows: Nitric oxide production by macrophages. As to conditions: RAW 264.7 cells stimulated with IFNγ and LPS, 24 hours. It counts as cell-based.

As a reminder, the IC50 is the concentration that gives 50% inhibition. High values mean weaker potency in that assay, low ones greater potency in that assay. As for `COc1ccc(C[C@H]2NC[C@H](O)[C@H]2OC(C)=O)cc1` [anisomycin], the midpoint of inhibition, the IC50, lay at 68 nM.

The record behind these values is patent US20090226500A1, “SUTURES AND ANTI-SCARRING AGENTS” (Angiotech Pharmaceuticals, Inc, priority 2006, published 2009).
